Laboratory results as given in PMC3125179, “A Ribosomal Misincorporation of Lys for Arg in Human Triosephosphate Isomerase Expressed in Escherichia coli Gives Rise to Two Protein Populations” (PLoS ONE, 2011).

Target: the molecule itself
Experiment: SEC; Superdex 200 10/300GL, 20 mM triethanolamine, 0.2 mM EDTA, 200 mM NaCl, 1 mM dithiothreitol, pH 7.4; calibrated with globular markers; no urea

B1: human triosephosphate isomerase (HsTIM), wild type sequence (enzyme)
chain: not shown
notes: triosephosphate isomerase, human, wild type, subcloned from pARHS-HsTIM into pET3b with an N-terminal His-tag and a TEV site; theoretical mass of the monomer after cleavage 26732 Da; Arg4, Arg98, Arg99 as printed are R5, R99, R100 with the methionine counted; also called P2; Peak 2; source: E. coli BL21(DE3), purified (Ni-NTA, TEV cleavage, second Ni-NTA); P2 isolated by SEC in 3 M urea; not …
stoichiometry N: 2
